Measured values taken from EP4792830A2.

B1: TFPI-26 (antibody, human IgG1, lambda)
heavy: [omitted - about 100 residues]NGAAAAWDYWGQGTLVTVSSASTKGPSVFPLAPSSKSTSGGTAALGCLVKDYFPEPVTVSWNSGALTSGVHTFPAVLQSSGLYSLSSVVTVPSSSLGTQTYICNVNHKPSNTKVDKKVEPKSCDKTHTCPPCPAPEAAGAPSVFLFPPKPKDTLMISRTPEVTCVVVDVSHEDPEVKFNWYVDGVEVHNAKTKPREEQYNSTYRVVSVLTVLHQDWLNGKEYKCKVSNKALPAPIEKTISKAKGQPREPQVYTLPPSREEMTKNQVSLTCLVKGFYPSDIAVEWESNGQPENNYKTTPPVLDSDGSFFLYSKLTVDKSRWQQGNVFSCSVMHEALHNHYTQKSLSLSPG
light: QSVLTQPPSLSGAPGQRVTISCTGSSSNLGADYDVQWYQQLPGTAPKLLIFGNNNRPSGVPDRFSGSRSGTSASLAITGLQAEDEANYYCQSYDRSLSGSMVFGGGTKLTVLGQPKAAPSVTLFPPSSEELQANKATLVCLISDFYPGAVTVAWKADSSPVKAGVETTTPSKQSNNKYAASSYLSLTPEQWKSHRSYSCQVTHEGSTVEKTVAPTECS
B2: hz4F36 (antibody, human IgG4 S228P, kappa)
heavy: EVQLVESGGGLVKPGGSLRLSCAASGFTFSNYAMSWVRQTPEKRLEWVATISRSGSYSYFPDSVQGRFTISRDNAKNSLYLQMNSLRAEDTAVYYCARLGGYDEGDAMDSWGQGTTVTVSSASTKGPSVFPLAPCSRSTSESTAALGCLVKDYFPEPVTVSWNSGALTSGVHTFPAVLQSSGLYSLSSVVTVPSSSLGTKTYTCNVDHKPSNTKVDKRV[omitted - human IgG4 Fc with S228P (EU numbers)]
light: DIVMTQTPLSLSVTPGQPASISCKSSQSLLESDGKTYLNWYLQKPGQSPQLLIYLVSILDSGVPDRFSGSGSGTDFTLKISRVEAEDVGVYYCLQATHFPQTFGGGTKVEIKRTVAAPSVFIFPPSDEQLKSGTASVVCLLNNFYPREAKVQWKVDNALQSGNSQESVTEQDSKDSTYSLSSTLTLSKADYEKHKVYACEVTHQGLSSPVTKSFNRGEC

Molecular target: endogenous TFPI in human plasma (human), P10646
Assay: cell-based or functional assay

Binder | TGA Velocity Index at 20 nM | Dilute PT EC50 [nM] | EC50 (dilute prothrombin time, clotting time) [nM]
B1 | 18.6 | – | –
B2 | – | 0.44 | 0.44
